The other results are listed elsewhere or left out.
Each sequence was assayed on PfSIP2 AP2 domain 1 (GST-tagged) (assay: gcPBM binding intensity (ln(normalized median fluorescence intensity)); higher = stronger DNA binding).
Method in brief: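 GST-tagged P. falciparum DNA-binding domains, expressed in E. coli (about 25 μg on average), were applied for 1 h to an Agilent 4 × 180k array of primer-extended double-stranded 36-bp intergenic genomic probes plus negative controls. The binding buffer was 1× PBS with 1% milk, 0.2 mg/ml BSA, 0.5% salmon testes DNA and 0.03% Triton X-100. Bound protein was detected with Alexa488 anti-GST antibody and scanned at 488 nm. Binding intensity is the highest Masliner-normalised natural-log median intensity across replicate spots of either probe orientation.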

Sequence | gcPBM binding intensity (ln)
TATATATATTTTATGTGTACTCAATGTTATAACGCA [XGTACX_site8360] | 7.37
AATAGAGTTGAATGCACACATACAAATTTTTAGTTT [CACACA_site3564] | 6.92
TTATTATATAAAGTTTCACACATTATTTGTTCAAAC [CACACA_site5218] | 6.72
ATATGAAGTATCGAATTAAGGGCAACAAATAAATTA [CACACA_negctrl_site1116] | 6.96
AAAAAAATAATATAAATAATGAAAAGATATAAATAA [GTGCAC_negctrl_site432] | 6.85
AATATAAGCAAATACACACACACATATAAATATGTA [CACACA_site7741] | 7.06
TACATATATAAATATGTACACACATATGTATGATCT [CACACA_site9284] | 7.08
TTATATATGACTAACGGTTTTTTTTTTTTTTTTTTT [CACACA_negctrl_site576] | 7.95
AGTAGTCTGGAGAAGAGTACACAGTATCTGGTAACA [XGTACX_site2032] | 6.52
TAATATCAATTTTTATGTACTTATATATATATATAT [XGTACX_site5879] | 8.95
ATTGAGAGAAAAAAATGTACTTGATCAAAATGGATA [XGTACX_site1649] | 6.97
GTGTATATATGTTATACACACAAAAATATTTTGTAT [CACACA_site265] | 6.97
AAAAATCATATAGGTTGTACGGGTAGTTTATTTTAT [XGTACX_site6936] | 7.02
ACAAAAAAAAAAAAAAAAAAAAAAAAAAAATAATAA [CACACA_negctrl_site1640] | 6.95
AGATCAATAATGACAAGTACACAAAATAACATTTAA [XGTACX_site6968] | 7
AAAATATATTAAGGCACACACATACATATTTATATA [CACACA_site7707] | 7
ATTTTGTAAAAGGTCATACACACATATTCAAAAGAA [CACACA_site2946] | 7
CGCACCCACAGACACACACACACATATATATATATA [CACACA_site2202] | 9.47
AATATATATTAAATATGTACTTATTTTTTGGTTGCT [XGTACX_site3613] | 6.99
TACATACAGAAACACACACACACATATATATATATA [CACACA_site2919] | 9.28
AAAGAATAATTAAATACACACATATTACAGTAAAAA [CACACA_site2450] | 6.86
ATAAGAAAAGGACACACACACAAAAAAAAAAAAAAA [CACACA_site7351] | 6.96

Sequence | gcPBM binding intensity (ln)
TGTTCTTATTTTATAAGCATATAATTAATCATAATG [CACACA_negctrl_site1493] | 6.88
TTTATTTATTATTGTTGTACACTTTTTATAAAAAAA [XGTACX_site5114] | 7.29
ATGTATATAATATTATGTACATATATGAAATATTTT [XGTACX_site8168] | 7.02
TAGTTTTTTATAAAATTATTTATATAAAGGTAAAAA [CACACA_negctrl_site490] | 7.1
AATATATTATAATATACACACATATATGCTCTTTAA [CACACA_site4131] | 7.17
ATATATTATATATATTTTAAGTAATTTGCAAAAAAT [GTGCAC_negctrl_site361] | 7.01
ATTTAAAAGAAATAATGTACGAATCATATTTGATAT [XGTACX_site1785] | 7.01
ATAGTATCTGGTAGCTGTACGAGTCGTAGAGTGCAG [XGTACX_site2020] | 8.66
ATTTATTAACCATATACACACATATATTTGTATTTA [CACACA_site6744] | 7.02
TTCCCTAATATTTGTTGTACTTGTTATATTTTTTTT [XGTACX_site5994] | 7.16
TATATTTGTAAGAAGAGTACTAAAAAAAGAATAAAG [XGTACX_site8704] | 7.49
ATATATATATATATATGTACGTACTCAGTTATGCCT [XGTACX_site453] | 9.2
ATACATATATATATATGTACATATGCACATATATAC [XGTACX_site7209] | 7.25
ATAATATATATATATACGCACACTTATGTACGGATT [CACACA_site2120] | 7.29
TTCTATATAATTCAAACATGCACAGGAAATATTATA [TGCATGCA_site290] | 9.85
AACAATGTTTTCTTGTGTACACATCATTAAAGAAAA [XGTACX_site4726] | 7.37
AAGAAAAAAGGGGACAAGGCATATCTATATATACAT [TGCATGCA_negctrl_site172] | 6.68
TATGTAACACATACTTGTACATATATAATTTTTTTA [XGTACX_site6251] | 6.78
ATATATATATCACGCACACACGAATTTTAAATATAT [CACACA_site5691] | 8.34
TTATTTTTACAATTTTAATAATAATACTAAAACAAA [XGTACX_negctrl_site538] | 6.93
TCTTTTGCCCAAAAAGGTACACACCACAATTTAAAT [XGTACX_site1482] | 7.4
TATTGTATGGTAGGATATGATGTTATTTGTTATAAT [CACACA_negctrl_site202] | 6.92

Sequence | gcPBM binding intensity (ln)
AATTATAGCTGTATCTGTACGCATTTATTTATAGAC [XGTACX_site5959] | 7.16
GAAAGGGCAGGAACTATTAATACACTGATCGATAAG [CACACA_negctrl_site1458] | 6.87
TTAAATAATATTAGCCGTACAATTTAAAGATAATAA [XGTACX_site8503] | 6.89
TTTAATACTTTATATGCATGCAGAGAAAAATGCTTG [TGCATGCA_site286] | 6.96
TTTGAAATATATTTAGTGCATATATATTGATTATAA [GTGCAC_site9604] | 9.71
ATACATATAGGATGCACACATAATTCAAATACAATA [CACACA_site651] | 7.73
ATGAATATAATGAAGTGTACATAAAAATAATAAATA [XGTACX_site2481] | 7.11
CAATTTTGCCCTTCCTGTACATATATTGAAAAATAT [XGTACX_site6388] | 7.27
ATCTAGTACATACATACACACAACAATGTTATGAGA [CACACA_site3989] | 7.16
TAAATATTTATAAACACACAAATATTTATATTTATA [CACACA_site6166] | 6.91
AAATAGAGAAATACAAGTACATATCAAACCAATCTA [XGTACX_site2756] | 6.73
TTTATTTATTAATACACACACACACGCCCACAAAAT [CACACA_site6253] | 7.57
AGGGACATATATATCACACACAAAAATTAGTCCCTT [CACACA_site2778] | 6.87
TAAAAATATAGGTATACACACATATAAATATAAATA [CACACA_site7785] | 6.89
CTTATACATAAATTTTGTACACACAAAAAAAAAAAA [XGTACX_site2665] | 7.43
GATTTTAAAATAATTACACACTTGATTATGTCCAAA [CACACA_site3491] | 6.9
ATAAATATAAATATATGTACATATATATATATATAT [XGTACX_site7433] | 9
AAGACACAAAAACACACACACATACATACATACATA [CACACA_site454] | 7.19
TATGTTGATGATGATAGTACATATGAGTTCAAAAAA [XGTACX_site7712] | 7.06
TGTTTTGTTGTGTATTGTACTAATATAAATATATAA [XGTACX_site1852] | 7.41
TAAAAAAACGCACTCGTACACACATATTTTCTTTCT [CACACA_site3090] | 8.53
TTTTATGATTGACACACACACAAAAAAAAAAAAAAA [CACACA_site7860] | 7.05

Sequence | gcPBM binding intensity (ln)
TATATTTGGAAAACATGTACATATAACAATATGTAA [XGTACX_site324] | 7.09
AATAAAAAAGGAAACAAATTAATATATATATATATA [CACACA_negctrl_site467] | 9.1
AAAAAAAGAAATAATAAAAAATATATATATATATAT [GTGCAC_negctrl_site702] | 9.47
CGTACATAATTTTAATCACACACAAACAAACACATA [CACACA_site7947] | 7.24
ACAAAATGTAAATAAACACACATATTTATATTTATA [CACACA_site6719] | 6.93
TTGGTGGATAAATTTACACACAATAATTTTCGTTCA [CACACA_site467] | 6.8
AATAAAATATTATGTGCATGCTGTTTTATTTATTAA [TGCATGCA_site102] | 6.97
AATTCACCAAAAAAAGTGCATATTCAATATATATTA | 8.66
TAAAACAAAACAAAAATAGGATTATATTCCTTTTTT [CACACA_negctrl_site1003] | 6.46
ATAATTTCAATATTTAATATCATATATATATATTTT [GTGCAC_negctrl_site713] | 6.94
ATATATATATATATATGTACATATGTGTATATAACT [XGTACX_site495] | 9.15
AAATAAAAAAATACCCAACACCATGCCAAATGTGAA [CACACA_negctrl_site411] | 6.73
TAAAATTCGAAAAATTGTACTATTTATATATCTGTA [XGTACX_site6478] | 6.76
TAGTTAGGCCCTACATGTACATAATATATATTACTT [XGTACX_site1137] | 7.22
ATCAACATTACATTTAGTACACATATATTTCTATGT [XGTACX_site4436] | 7.08
TATATAAGTATAAAATGTACATAAAATTTTATGTTA [XGTACX_site2613] | 6.92
CTAATTAATATTTGTACACACATATTTAACCTACTA [CACACA_site3191] | 6.89
TAAAAATTTACATGTTGTACATATAATTATATAATC [XGTACX_site4577] | 6.91
AGGCTGCCATATTATACACACATTTTTAAAAAAATT [CACACA_site3843] | 6.82
AAATATTACCATGTGAAAATTTTACTGCAACATGAA [TGCATGCA_negctrl_site609] | 6.97
ATATTAAACAGACACACACACATATATTTATTTATA [CACACA_site7564] | 6.98
